In PubChem BioAssay AID1030 (National Center for Advancing Translational Sciences (NCATS), 2008):
Among all 220,000 compounds or so, about 16,000 (7.3%) were called active. Inconclusive means that the source gave no clear call. Such entries were picked first, then a sample of the others. Calls come from the whole dose curve; as a rule, active = well fitted inhibition curve with a large enough effect (not every such curve was filed as active); inconclusive = small, poorly fitted or top-dose-only effect, or another doubt; inactive = no such curve, though single readings can be large or run the other way. Potencies of inconclusive entries are left out as doubtful fits.

Biological target: Aldehyde dehydrogenase 1A1 (Homo sapiens) (UniProt P00352)
UniProt P00352, sequence (P00352 whole entry, looked up): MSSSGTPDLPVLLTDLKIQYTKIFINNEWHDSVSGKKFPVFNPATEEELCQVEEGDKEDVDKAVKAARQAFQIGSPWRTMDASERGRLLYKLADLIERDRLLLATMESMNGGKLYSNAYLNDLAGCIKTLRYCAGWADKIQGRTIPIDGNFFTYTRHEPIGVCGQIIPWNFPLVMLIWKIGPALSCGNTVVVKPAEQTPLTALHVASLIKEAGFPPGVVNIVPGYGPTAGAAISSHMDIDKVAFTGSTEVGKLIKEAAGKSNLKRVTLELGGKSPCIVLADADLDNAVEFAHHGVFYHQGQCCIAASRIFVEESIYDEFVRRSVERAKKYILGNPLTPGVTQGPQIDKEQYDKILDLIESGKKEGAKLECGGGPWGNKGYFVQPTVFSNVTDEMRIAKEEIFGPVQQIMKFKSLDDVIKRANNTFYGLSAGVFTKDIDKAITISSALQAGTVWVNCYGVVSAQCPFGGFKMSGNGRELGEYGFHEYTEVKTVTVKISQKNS
Experiment: qHTS Assay for Inhibitors of Aldehyde Dehydrogenase 1 (ALDH1A1)
Conditions: Purified ALDH1A1, NADH fluorescence, propionaldehyde substrate; series mostly up to 75.3 µM
Potency is the fitted concentration of half-maximal effect; tags give direction and shape of the fitted curve.

SMILES | Potency
Clc1ccccc1/C=N/c1cc(-c2ccccc2)nn1-c1ccccc1 | inactive
O=C(NCc1ccc(Cl)c(Cl)c1)c1ccco1 | inconclusive [inhibitor, single point]
Cc1c(Cc2ccccc2)c(=O)oc2cc(O)cc(O)c12 | inconclusive [inhibitor, partial curve]
Cc1nn(C)c(C)c1NC(=O)c1cc2nc(-c3ccco3)cc(C(F)(F)F)n2n1 | inconclusive [inhibitor, partial curve]
C=CCc1cc(C)ccc1OCCOCCC(C(=O)OCC)C(=O)OCC | inconclusive [inhibitor, partial curve, poor fit]
Cc1cc(NC(=O)c2cc3ncc(Br)cn3n2)no1 | inactive
CC(C)N(Cc1nc(-c2ccc(Cl)cc2)no1)C(=O)c1cccs1 | inconclusive [inhibitor, partial curve]
N#Cc1ncc(C(F)(F)F)cc1Sc1ccc(N)cc1 | inconclusive [inhibitor, single point]
O=C(NNS(=O)(=O)c1ccc(Cl)cc1)c1ccc(S(=O)(=O)N2CCCCC2)cc1 | inconclusive [inhibitor, single point]
CCCC(=O)Nc1sc(C)c(-c2ccc(OC)cc2)c1C#N | inactive
[O-]/[N+](=C\c1ccc(OC(F)F)cc1)c1ccccc1 | active: 7.94 µM
CCn1c(NC)cc(=O)n(C)c1=O | inconclusive [inhibitor, single point]
O=C1NC(=O)c2cc(NC(=O)C3CCCO3)ccc21 (configuration not stated) | inconclusive [inhibitor, partial curve]
O=C(Oc1ccc2c(c1)OCO2)c1ccc(F)cc1Cl | inactive
O=C(CN1C(=O)c2ccccc2S1(=O)=O)NCc1ccc2c(c1)OCO2 | inconclusive [inhibitor, single point]
CCC(c1nnnn1Cc1cccs1)N1CCN(C(=O)c2ccco2)CC1 (configuration not stated) | inconclusive [inhibitor, partial curve]
O=C(c1ccc(S(=O)(=O)Cc2ccccc2F)c([N+](=O)[O-])c1)N1CCCC1 | inconclusive [inhibitor, single point]
Cc1cc(C)c(O)c(C2(O)C(=O)c3ccccc3C2=O)c1 | inconclusive [inhibitor, single point]
COc1ccc(C2CC3(CC(C)(C)NC(SC)=N3)Oc3cc(O)cc(C)c32)cc1 (configuration not stated) | inactive
Cc1ccc(N2CC(C(=O)Nc3ccc(S(=O)(=O)Nc4nccc(C)n4)cc3)CC2=O)cc1 (configuration not stated) | inactive
COc1ccc(C(=S)N(C)C)cc1OC | inconclusive [inhibitor, single point]
c1ccc(Cn2nnc3c(N4CCN(Cc5ccc6c(c5)OCO6)CC4)ncnc32)cc1 | inconclusive [inhibitor, single point]
CCCc1noc(-c2ccc(-c3ccccc3)cc2)n1 | inconclusive [inhibitor, single point]
CCOCCCNC(=O)C(c1ccc(OC)cc1)N(Cc1ccc2c(c1)OCO2)C(=O)c1ccccc1O (configuration not stated) | active: 2 µM

SMILES | Potency
COc1ccc(-c2noc(-c3ccccc3C(=O)Nc3cccnc3)n2)cc1 | inconclusive [inhibitor, single point]
O=c1oc2ccccc2c(Nc2ccc3ccccc3c2)c1[N+](=O)[O-] | active: 2.24 µM
CN(C)CCNC(=O)c1cc2sc3ccccc3c2s1 | inconclusive [inhibitor, partial curve]
COc1cc(/C=C/C(=O)OCC(=O)Nc2ccc(S(=O)(=O)N3CCCC3)cc2)ccc1O | inconclusive [inhibitor, single point]
CN(C)/C=N/c1ncc(C(=O)c2ccccc2)s1 | inconclusive [inhibitor, single point]
O=C(NC(=S)Nc1ccccc1N1CCCCC1)c1ccccc1 | active: 18.9 µM
O=C(Nc1nccs1)c1ccc2c(=O)n3c(nc2c1)CCCCC3 | inconclusive [inhibitor, partial curve]
O=S(=O)(Nc1nccs1)c1ccc(NS(=O)(=O)c2cccs2)cc1 | active: 17.8 µM
CN=C(c1ccc(C)cc1)n1c(=S)nc(-c2ccc(C)cc2)n(C)c1=S | inconclusive [inhibitor, single point]
COCc1cc(=O)[nH]c(=S)[nH]1 | inactive
COc1ccc(CCNC(=O)C23CN(Cc4ccccc4)CC2C(c2ccc([N+](=O)[O-])cc2)=NO3)cc1 (configuration not stated) | active: 15.8 µM
O=C(c1ccco1)N1CCC(c2nc(-c3ccc(F)cc3)no2)CC1 | inconclusive [inhibitor, single point]
COc1cccc(C2(O)CCN(CC(=O)NCC3CC3)CC2)c1 | inactive
COc1cc2cc(C(c3nnnn3Cc3ccc(F)cc3)N3CCCCCC3)c(=O)[nH]c2cc1OC (configuration not stated) | inconclusive [inhibitor, single point]
CC/C=C\C/C=C\C/C=C\C/C=C\C/C=C\C/C=C\CCC(=O)NCC(=O)O | inconclusive [inhibitor, single point]
CC1=C(C(=O)OCC2CCCO2)C(c2ccc(C)o2)C2=C(CC(c3ccc(N(C)C)cc3)CC2=O)N1 (configuration not stated) | active: 10 µM
CCOC(=O)N1CCC(NC(=O)CCN2C(=O)COc3ccccc32)CC1 | inactive
COC(=O)COc1cc(C)cc2oc(=O)c(CC(=O)OC)c(C)c12 | inconclusive [inhibitor, partial curve]
Cn1c(=O)n(-c2ccccc2)c(=O)c2c3c(sc21)COC(C)(C)C3 | inconclusive [inhibitor, single point]
COc1cccc(/C=N/NC(=O)C(=O)NCc2ccco2)c1O | inactive
Cc1ccsc1/C=N/NC(=O)CN1CCN(S(=O)(=O)c2ccc(Br)cc2)CC1 | inactive
COCCn1c(C(=O)N2CCCC2)cc2c1C[C@H]1CN(C(=O)c3ccccc3)[C@@](Cc3ccccc3)(C(=O)OC)[C@@H]21 | inactive
O=C(NCc1ccco1)c1nc2ccccc2s1 | inconclusive [inhibitor, single point]
COc1ccc(OC)c(-c2csc(N(CC3CCCO3)C(=O)C3CCCCC3)n2)c1 (configuration not stated) | inactive

SMILES | Potency
CCn1cc(C(=O)NCc2ccc3c(c2)OCO3)c(=O)c2cc(F)c(N3CCN(C(=O)c4ccco4)CC3)cc21 | inconclusive [inhibitor, full curve]
COC(=O)c1ccc(NC(=O)CSc2nnc(-c3ccncc3)n2N)cc1 | active: 25.1 µM
O=C1OC(c2ccco2)=N/C1=C\c1ccc(-c2cccc(C(F)(F)F)c2)o1 | inconclusive [inhibitor, full curve, poor fit]
O=C(Nc1cccc(N2C(=O)C3C4C=CC(C4)C3C2=O)c1)c1cccs1 (configuration not stated) | inactive
O=[N+]([O-])c1ccc(Cl)cc1CNc1ccc(F)c(F)c1 | inconclusive [inhibitor, single point]
O=C(CCC(=O)NNC(=S)Nc1ccccc1)NCc1ccccc1 | inconclusive [inhibitor, partial curve]
O=C(c1ccco1)N(CC1CCCO1)c1nc(-c2ccccc2)cs1 (configuration not stated) | inconclusive [inhibitor, single point]
COc1ccc(N2C(=O)C(Cl)=C(Oc3cccc(OC)c3)C2=O)cc1 | active: 17.8 µM
O=c1[nH]c2ccc(Cl)cc2c(-c2ccccc2)c1N1CCN(CCO)CC1 | inconclusive [inhibitor, partial curve]
CC1(C)CC(=O)c2sc(N3CCCCC3)nc2C1 | inconclusive [inhibitor, partial curve]
CCN(CC)CCN1C(=O)c2ccccc2NC1c1cc(OC)c(OC)c(OC)c1 (configuration not stated) | inconclusive [inhibitor, partial curve]
CCN(CC)S(=O)(=O)N1CCC(C(=O)NC(C)CCc2ccccc2)CC1 (configuration not stated) | inconclusive [inhibitor, single point]
CCCc1cc(=O)[nH]c(SCC(=O)c2ccc(S(=O)(=O)N3CCCC3)cc2)n1 | inconclusive [inhibitor, partial curve]
Cc1cc(=O)[nH]c(N/N=C/c2c(C)nn(-c3ccccc3)c2C)n1 | inconclusive [inhibitor, partial curve]
CC1=C(C(N)=O)C(c2ccc(C)o2)C(C(N)=O)=C(C)N1 | active: 39.8 µM
CNC(=O)C(Sc1nc(C)nc2c1oc1ccccc12)C(C)=O (configuration not stated) | active: 12.6 µM
COC(=O)c1cc2occc2n1Cc1nc(-c2cccc(Cl)c2)oc1C | inactive
CC(C)(C)c1ccc(C(=O)NNc2cc(N3CCCCC3)nc(N3CCCCC3)n2)cc1 | inactive
CCC1=NN(C(=O)CCc2ccccc2O)C(O)(C(F)(F)F)C1 (configuration not stated) | inactive
COc1ccc(-c2cc(C(F)(F)F)nc(-n3cncn3)n2)cc1 | inconclusive [inhibitor, partial curve]
CCS(=O)(=O)Nc1cccc(C2=NN(S(=O)(=O)c3ccc(C)cc3)C(c3cccs3)C2)c1 (configuration not stated) | active: 5.01 µM
O=C(O)CCCNS(=O)(=O)c1ccc(NCc2ccccc2)c(C(=O)O)c1 | inconclusive [inhibitor, partial curve]
Cc1cc(C)n(CC(C)NCc2cn[nH]c2-c2ccc(C)c(C)c2)n1 (configuration not stated) | inactive
COC(=O)c1ccccc1NC(=O)c1ccccc1NS(C)(=O)=O | inactive
